Assay results reported in the supplement of paper PMC3334620.
Over roughly 33,000 sequences, “E-score (-0.5 to 0.5)” has its median near -0.012; the highest 2% begin near 0.29. The list shows a part of the results.

What follows are sequences tested against T1, Ybr033w (UniProt P38073) (assay: PBM E-score (8-mer binding enrichment) (E-score (-0.5 to 0.5)); higher = stronger / more preferred TF binding; most listed sequences are background and not binding sites). Details: protein concentration: 200 nM; construct: GST-full length.
T1 sequence: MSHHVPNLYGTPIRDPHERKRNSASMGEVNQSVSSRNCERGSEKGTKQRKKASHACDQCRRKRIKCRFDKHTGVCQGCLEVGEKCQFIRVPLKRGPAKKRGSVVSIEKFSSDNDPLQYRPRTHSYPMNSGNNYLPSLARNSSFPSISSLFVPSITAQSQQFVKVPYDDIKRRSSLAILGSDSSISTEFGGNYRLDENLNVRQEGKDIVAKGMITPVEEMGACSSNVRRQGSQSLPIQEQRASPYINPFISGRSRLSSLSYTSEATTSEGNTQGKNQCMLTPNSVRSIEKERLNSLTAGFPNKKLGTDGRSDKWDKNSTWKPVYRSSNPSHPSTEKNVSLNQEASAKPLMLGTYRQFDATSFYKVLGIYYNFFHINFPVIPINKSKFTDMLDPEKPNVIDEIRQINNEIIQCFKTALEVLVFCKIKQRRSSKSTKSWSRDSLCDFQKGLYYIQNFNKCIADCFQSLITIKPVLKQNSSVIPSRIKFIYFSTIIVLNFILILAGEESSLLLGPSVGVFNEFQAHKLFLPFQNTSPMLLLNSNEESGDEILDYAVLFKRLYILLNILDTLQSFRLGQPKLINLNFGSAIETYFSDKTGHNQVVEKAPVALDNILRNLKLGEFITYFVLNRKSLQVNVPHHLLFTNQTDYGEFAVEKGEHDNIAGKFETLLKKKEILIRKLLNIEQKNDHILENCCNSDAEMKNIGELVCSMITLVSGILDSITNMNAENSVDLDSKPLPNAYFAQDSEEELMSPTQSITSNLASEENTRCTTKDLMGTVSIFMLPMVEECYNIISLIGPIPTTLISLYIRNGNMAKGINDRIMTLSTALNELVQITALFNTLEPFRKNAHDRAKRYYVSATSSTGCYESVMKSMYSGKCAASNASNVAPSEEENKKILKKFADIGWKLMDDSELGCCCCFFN
Method in brief: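 Masliner-normalised scans of fluorescent anti-GST signal were the basis for scoring. That signal came from GST-tagged yeast transcription factors applied at about 100-200 nM to double-stranded universal all-10-mer Agilent arrays on fresh or once-stripped slides. Each ungapped eight-base word, pooled with its reverse complement, received an E-score from the Universal PBM Analysis Suite.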

Sequence | PBM E-score
ACCTTTTC | -0.0691
TCTAAAAA | 0.147
CTGCAGTA | -0.0696
TGAAAGAA | 0.188
CCCGCCGC | -0.016
GTTTGACA | 0.0683
AGATCCGG | -0.0199
CCATGTTC | -0.149
GACGCGAA | 0.0187
AAAAGAAT | 0.261
ACGCACGT | -0.133
ACGATAGA | -0.131
ACATAACG | 0.238
CCTTTATA | 0.0474
CCCCGTGC | -0.195
CGCGTACC | -0.0861
TACGACAA | 0.138
CTACAGTC | -0.185
ATCGCGGA | -0.0841
GTGCGAAC | -0.122
AGCCTTTA | 0.0955
AGAAGATG | 0.0792
ACAGGTAT | 0.204
ACCACTCC | -0.087
ATCATCAG | 0.0449

Sequence | PBM E-score
TATGTAAA | 0.244
CCGGCGCG | -0.151
CGGTTGGA | 0.0125
AACAAGCA | 0.11
CCGCTTCG | -0.237
AGTATCAA | 0.224
ATTGCAGG | -0.0365
TTTACAAA | 0.271
AGATGGTG | -0.108
ATTGAAAT | 0.296
AAACGTCA | -0.0509
CCACTACG | -0.159
GGTGGGCA | -0.207
GAGACAGA | -0.0423
ATTCGGTC | -0.00492
CAACGCGA | -0.135
GTTGGCCA | -0.115
GAACGAGA | -0.0948
ACCGCGCA | -0.0661
ACGGACGC | -0.127
TAGTTGCA | 0.0995
CGTCAACC | -0.00887
GATATTTA | 0.338
CCACGACA | -0.21
CAGGGAGG | -0.241

Sequence | PBM E-score
CTGTTATC | 0.121
ACGCTGGA | -0.096
GCCGCAGC | -0.276
ACCTCATG | -0.276
GGAGAATA | 0.198
GCGGGTGA | -0.104
GTTTTAAA | 0.165
CGTGCGGC | -0.204
CAGAAGCG | 0.0103
ACCGTAGC | -0.109
GTGTCCAA | 0.0396
GTAATTAC | 0.218
AGCGGCTG | -0.0668
GAAAGGGA | -0.0854
GCACTAAC | -0.112
ATCCTGGC | -0.0209
AATTCAGC | 0.107
AGCACGAC | -0.0495
AATTTTGT | 0.215
CACAGTCC | -0.197
CTGTGCTC | -0.0511
GAACTCAA | 0.0888
AGGCGTCG | -0.162
CAGTTATG | 0.0877
AGTATGCG | -0.00038

Sequence | PBM E-score
CCCCGCCA | -0.00658
AGACTTAT | -0.00502
GCACCCGA | -0.0735
AACGTGCT | -0.156
AAATAATA | 0.344
CGGCAGAC | -0.135
AGCGGTTG | 0.00536
ACCAACGG | -0.173
ATGGTGCC | -0.171
AGCAGGGG | -0.279
GGACCCGA | -0.153
GTGACAAA | -0.0827
TCGTGAAA | -0.0359
TAAATACA | 0.229
TGTGCTAA | 0.234
GGACTTTA | -0.00904
AACTCTCG | 0.073
AACCTTAG | -0.142
TAATGAAA | 0.238
TACTTACA | 0.011
CAGGCGAG | -0.245
AGGACATC | 0.028
CGCGCAGA | 0.0903
ATGGTGGG | -0.245
ATCGGAAA | 0.286

Sequence | PBM E-score
GCCTACCC | -0.191
GTTCAAGA | 0.124
ATGGAGCA | -0.0275
CCGCCGTC | -0.0904
GCCCTACC | -0.151
AACTCCTC | -0.053
GCGGCATA | 0.0599
CGACTTGA | -0.0147
CACACTAG | 0.0753
ACGACGTG | 0.0301
TGACAGCA | 0.136
ACGAATGA | 0.0902
GGCTACAA | -0.149
CCACTGTA | 0.0804
AATCGGAC | -0.095
AAGTCCAC | -0.0692
GCGTATCA | 0.0712
CAGCGGCA | -0.202
GGCGTGAA | -0.174
ACTGAGCG | -0.0469
ACCAGTGA | -0.111
CTAGCCTC | -0.139
GAATTGAA | 0.246
ACAGGCTG | -0.109
GACAAGGC | -0.196

Sequence | PBM E-score
ACGGGAAA | 0.0598
AATAACTG | 0.271
GCTCGAGC | -0.0188
CAGACTGA | -0.103
CTATTTCC | 0.276
ACATACGT | -0.0225
CACACCCC | -0.251
AGGGGGTG | -0.353
ATAGGTCA | 0.114
ACAATGAC | -0.0405
GAATTTAC | 0.181
CGCCTGAA | -0.00563
GGTACGTA | 0.00587
CAAGGCAA | -0.0761
ACCCAAAA | 0.0634
ACCCGGCG | -0.187
TATATACA | 0.24
AGCAGACT | 0.00644
AGGGCGAT | -0.196
CCATATCC | -0.0724
GCCTTCGC | -0.129
CGTGCGAA | -0.0457
ACCGCAGG | 0.052
AACTTCTT | 0.167
AACATAGA | -0.0138

Sequence | PBM E-score
CATGTGAC | -0.0101
ACGCGAAT | -0.0106
GGACTAGA | -0.0912
CTTAACCA | 0.185
ATGAAGGC | 0.0345
AGATGACC | -0.134
CGCAAGCA | 0.0716
CGCCCTCA | -0.209
ACATGTAT | 0.248
TAAACGAA | 0.138
TATTAACA | 0.291
AGAAGTGG | 0.0389
GCACCTAA | 0.0093
AGTCGGTG | -0.0636
AATGCGAG | 0.291
CACGATGG | -0.164
ACCATTAT | -0.0466
CGCGTCGC | -0.0746
AAGGTAAA | 0.189
TGACATAA | 0.204
AACAATCT | 0.168
ATAGTAGA | 0.158
ACGATGCA | -0.0337
AGTATCTG | -0.00576
ACTGTTGA | 0.0498

Sequence | PBM E-score
TATATGAA | 0.156
GAGGTATA | 0.259
ATGTTCAA | 0.0215
CGAAAGCC | -0.307
CAGGTTGG | -0.079
ACAATGCA | 0.165
CCGCACGG | -0.0878
CCGCCTTA | -0.167
CGTGGTTA | -0.0128
AGTCCGTC | -0.104
AAGACACG | -0.0957
AGTACTAA | 0.156
AAGTTCCT | 0.0578
AGATTCCA | 0.207
CAACTCAC | 0.106
GCAGAATA | 0.0133
ACGAGCCC | -0.205
TGAACAAA | 0.284
ATACCGAA | 0.126
ATTCTATG | -0.02
AGGATATG | 0.0735
CAGTCTGG | -0.226
ATACGGGC | -0.199
ACGCACTA | 0.0377
CTTTGCCC | -0.223

Sequence | PBM E-score
AGCGCGGA | 0.0442
ATCTATTA | 0.327
AGACCCCC | -0.299
CCCCTGAA | -0.119
ATGTATGG | 0.0739
CATCCAAG | -0.00818
AAGGGTAG | -0.055
CCTTCAAG | -0.0729
AGCACGAT | 0.0621
GCTAGTTA | 0.0912
AGGGAGTA | -0.044
CACGTTGC | -0.172
AAGTTCAT | 0.252
GAGCGCGC | -0.0206
GGACCCCC | -0.37
AGACCACC | -0.142
ACTTGCAC | -0.14
AGGTCGAC | 0.0882
AGGCGGCC | -0.27
